Source: publication PMC4336329 (PLoS ONE, 2015)
In all, about 310,000 compounds went through this assay and about 14,000 (4.5%) showed an effect of 50% or more. Effects have a minus sign here. The list shows a part of the results.

What follows are molecules tested against human ether-à-go-go-related gene (hERG) potassium channel (human, UniProt Q12809) (assay: primary screen, population patch clamp on CHO cells stably expressing hERG).
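Further: peak tail current of the secondary pulse compared with the same well before compound.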

Sequence of human ether-à-go-go-related gene (hERG) potassium channel (Q12809 whole entry, looked up): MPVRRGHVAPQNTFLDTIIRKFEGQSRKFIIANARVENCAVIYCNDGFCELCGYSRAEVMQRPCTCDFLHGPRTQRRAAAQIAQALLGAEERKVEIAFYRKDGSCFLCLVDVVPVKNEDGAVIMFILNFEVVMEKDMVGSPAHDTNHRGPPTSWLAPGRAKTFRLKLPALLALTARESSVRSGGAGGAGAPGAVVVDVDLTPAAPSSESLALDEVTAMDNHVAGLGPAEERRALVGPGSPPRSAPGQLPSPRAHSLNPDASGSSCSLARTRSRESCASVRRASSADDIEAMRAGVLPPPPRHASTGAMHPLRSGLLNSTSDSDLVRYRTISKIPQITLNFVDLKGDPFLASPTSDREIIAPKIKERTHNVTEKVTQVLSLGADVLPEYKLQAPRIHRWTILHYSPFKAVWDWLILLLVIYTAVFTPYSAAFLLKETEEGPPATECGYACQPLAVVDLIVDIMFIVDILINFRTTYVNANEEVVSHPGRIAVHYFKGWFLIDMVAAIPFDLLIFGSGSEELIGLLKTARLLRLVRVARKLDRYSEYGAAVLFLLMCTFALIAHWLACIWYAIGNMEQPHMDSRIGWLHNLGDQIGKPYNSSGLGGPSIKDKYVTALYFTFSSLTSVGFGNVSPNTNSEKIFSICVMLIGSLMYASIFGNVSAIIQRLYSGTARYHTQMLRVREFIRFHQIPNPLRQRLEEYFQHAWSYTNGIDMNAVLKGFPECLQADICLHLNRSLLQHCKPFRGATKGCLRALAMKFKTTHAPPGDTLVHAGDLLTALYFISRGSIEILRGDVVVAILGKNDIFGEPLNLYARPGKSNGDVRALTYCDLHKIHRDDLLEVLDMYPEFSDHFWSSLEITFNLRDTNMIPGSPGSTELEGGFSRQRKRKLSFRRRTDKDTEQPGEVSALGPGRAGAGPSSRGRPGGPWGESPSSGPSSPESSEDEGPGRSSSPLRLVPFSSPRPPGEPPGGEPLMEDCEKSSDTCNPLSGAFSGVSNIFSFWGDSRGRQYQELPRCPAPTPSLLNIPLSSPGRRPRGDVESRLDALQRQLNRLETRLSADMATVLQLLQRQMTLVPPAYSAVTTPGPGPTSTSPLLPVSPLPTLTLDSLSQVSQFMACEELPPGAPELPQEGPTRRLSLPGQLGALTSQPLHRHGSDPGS

| SMILES | hERG current change (%, negative = inhibition) at 10uM |
| --- | --- |
| COc1ccccc1CN1CC(C(=O)N(C)Cc2ccc(C)o2)CCC1=O (stereo not shown) | -14.5% |
| O=C(NCCc1ccccc1)c1ccc(Cl)nc1 | -0.199% |
| O=C(O)COc1ccccc1C(Nc1ccccn1)c1cc(Cl)c2cccnc2c1O (stereo not shown) | 1.4% |
| COc1ccc(S(=O)(=O)Nc2ccccc2C(=O)N2CCOCC2)cc1F | 10.1% |
| Cc1cccc(C(=O)Oc2ccccc2-c2nnco2)c1 | -4.34% |
| Brc1ccc(-c2nnc(-c3ccco3)o2)cc1 | -3.06% |
| Oc1cnc2ccccc2c1CN1CCOCC1 | 16.6% |
| Cc1ccc(C(=O)N2CC(C)OC(C)C2)cc1S(=O)(=O)N1CCCCC1 (stereo not shown) | -8.45% |
| COc1cc(NC(=S)NCCSc2ccc(C)cc2)cc(OC)c1 | -1.01% |
| O=c1[nH]c(NCCO)nc2ncn(Cc3ccccc3)c12 | 18.4% |
| COc1cc(NC(=O)COC(=O)c2ccc(C)c(S(=O)(=O)N3CCCCC3)c2)c(C)cc1[N+](=O)[O-] | 5.33% |
| COc1ccc(Br)cc1S(=O)(=O)N(CC(=O)N1CCOCC1)c1ccccc1 | -47% |
| O=C(Nc1ccn(Cc2ccccc2)n1)c1ccc(F)cc1 | 0.921% |
| Cc1ccc(NC(=O)Cn2cc(C(=O)C3CC3)c3ccccc32)cc1 | 18.5% |
| CC(=O)NC(Cc1cccc(F)c1)C(=O)NC1CCN(C(=O)c2ccc(C)cc2)CC1 (stereo not shown) | 33% |
| Cc1cc(-c2nc(C)c(C(=O)NNS(=O)(=O)c3ccccc3)s2)no1 | 11.9% |
| O=C(NCCc1cccc(Cl)c1)c1ccc(Cl)c([N+](=O)[O-])c1 | -40% |
| COc1ccccc1N(CC(=O)N(CC(C)C)CC(C)C)S(=O)(=O)c1cccs1 | -7.08% |
| CCOCCCn1c(=S)[nH]c2cc(C(=O)NCCc3ccccc3)ccc2c1=O | 15.4% |
| CN1CCC(n2nccc2N)CC1 | 14.5% |
| Cc1nc(C(C)NC(=O)c2ccc(OC3CCN(Cc4ccccn4)CC3)cc2)c(C)s1 (stereo not shown) | -9.05% |
| CCOc1ccc(NCc2nnc(SCc3ccc(Cl)cc3)n2-c2ccccc2)cc1 | -8.69% |

| SMILES | hERG current change (%, negative = inhibition) at 10uM |
| --- | --- |
| O=C(COc1ncnc2ccccc12)Nc1cc([N+](=O)[O-])ccc1F | -0.876% |
| CC(=O)Nc1sc2c(c1C(c1ccncc1)N1CCOCC1)CCCC2 (stereo not shown) | 0.514% |
| Cc1nc(SC(C)C(=O)Nc2c(C)n(C)n(-c3ccccc3)c2=O)nc(C)c1C (stereo not shown) | -27.2% |
| CC12CCC(C(=O)N/N=C/c3ccc(O)cc3O)(OC1=O)C2(C)C (stereo not shown) | 7.7% |
| Cc1ccn2c(=O)c(NC(=O)c3cccc4ccccc34)c(C)nc2c1 | -1.31% |
| CCNC(=O)NCc1c(C)c(C)n(Cc2ccccc2)c1-n1cccc1 | 3.68% |
| Cc1[nH]nc2c1C(c1ccsc1)C1=C(CC(C)(C)CC1=O)N2 (stereo not shown) | 26.3% |
| Cc1ccc(S(=O)(=O)Nc2ccc(NC(=O)/C=C/C(=O)O)cc2)cc1 | 13.4% |
| CCCCN1C(=O)NC(=O)C2(Cc3ccccc3N3CCOCC32)C1=O (stereo not shown) | 18.7% |
| CCN(CC(=O)Nc1ccccc1C(F)(F)F)C(=O)c1ccc(N2C(=O)CCC2=O)cc1 | 16.1% |
| Cc1cc2oc(=O)cc(CN3CCCCC3C)c2cc1C(C)C (stereo not shown) | -22% |
| Cc1cccc(NC(=O)c2ccccc2OCC(=O)c2ccc(F)cc2)c1 | 4.39% |
| CC1CCCC(NC(=O)CCNC(=O)c2ccccc2Cl)C1C (stereo not shown) | 1.35% |
| S=C(NCc1ccc(Cl)cc1)NCc1ccco1 | 4.1% |
| C=CCn1c(=O)/c(=C2/Sc3ccccc3N2CC)s/c1=C1/C(=O)NN=C1C | 5.68% |
| CCCC/C(O)=C1\C(=O)CCCC1=NCCc1c(C)[nH]c2ccccc12 | -12% |
| CC(=O)c1ccc(N2CCN(C(=S)Nc3cccc(F)c3)CC2)cc1 | 6.66% |
| CC(C)[C@H](NC(=O)OC(C)(C)C)C(=O)NCC1CCC(C(=O)N[C@@H](Cc2ccccc2)C(=O)O)CC1 (stereo partly shown) | 10.2% |
| COc1ccc2[nH]c(=O)c(CNC3CCCCC3)cc2c1 | -8.14% |
| Fc1ccc(COc2ccc(Cl)cc2/C=N/Nc2nc(N3CCCC3)nc(N3CCCC3)n2)cc1 | 4.86% |
| CCC(=O)n1nc(-c2ccc(Cl)cc2)nc1SC | 18.9% |
| O=C(NCCc1ccccc1)C(=O)NCC1OCCN1S(=O)(=O)c1ccc(Cl)cc1 (stereo not shown) | -3.63% |

| SMILES | hERG current change (%, negative = inhibition) at 10uM |
| --- | --- |
| Cc1cc(NC(=O)CCCn2nc([N+](=O)[O-])c(Cl)c2C)no1 | -11.7% |
| FC(F)(F)c1cccc(-c2ccn3ncnc3n2)c1 | -0.371% |
| O=C(N[C@@H](Cc1ccccc1)C(=O)O)c1cccnc1 | 13% |
| Cc1ccc(OC(=O)C(F)(F)F)c2c1NCCC2 | -8.82% |
| CC(C)CN(C(=O)CN1CCN(c2ccc(O)cc2)CC1)c1c(N)n(CC(C)C)c(=O)[nH]c1=O | 24.8% |
| COc1ccccc1C(=O)NC(=O)COC(=O)CN1C(=O)NC2(CCCCC2C)C1=O (stereo not shown) | -13% |
| CCCOC(=O)c1cc(=O)[nH]c2ccccc12 | 1.37% |
| Cc1[nH]n(-c2cccc(Cl)c2)c(=O)c1C=NCc1ccco1 | -19.1% |
| Cn1nnnc1Sc1c(Cl)cccc1[N+](=O)[O-] | 11% |
| CCc1ccc(N2CCN(CCNC(=O)Nc3ccccc3)CC2)cc1 | -21.1% |
| Cc1ccc(NC(=O)n2ncc3c(C)cccc32)cc1F | 20.5% |
| O=C(Nc1c2c(nn1-c1ccc(F)cc1)CSC2)c1ccc(S(=O)(=O)N2CCOCC2)cc1 | -16.2% |
| COc1ccc(OC)c(-n2c(SCC(C)=O)nnc2-c2cccc(S(=O)(=O)N(C)C)c2)c1 | -16.9% |
| Cc1sc2c(c1C)CN(CCN1CCOCC1)CN2C(=O)c1ccccc1 | 2.64% |
| CS(=O)(=O)N1CCN(c2ccc([N+](=O)[O-])c(NCc3ccccc3)c2)CC1 | -8.11% |
| Cc1ccc(S(=O)(=O)N2CCN(S(=O)(=O)N3CCOCC3)CC2)c(C)c1 | -11.6% |
| O=C(CSc1nc2cc(Cl)ccc2s1)NCc1ccc2c(c1)OCO2 | 0.137% |
| CC(C)c1ccccc1OCC(=O)Nc1cc(S(=O)(=O)N2CCOCC2)ccc1N1CCCC1 | -8.28% |
| C=CCSc1nc2ccccc2n1C(=O)/C=C/c1ccc(OC)c(OC)c1 | -10.8% |
| Cc1ccc(CN2CCNC(=O)C2CC(=O)NCCCn2cccn2)o1 (stereo not shown) | 11.9% |
| CN(C)CCCNC(=S)/N=c1\sccn1Cc1ccccc1Cl | -44.4% |
| Cc1ccsc1CN(C)C(=O)CN1C(=O)NC(c2ccccc2)(c2ccccc2)C1=O | -21.5% |

| SMILES | hERG current change (%, negative = inhibition) at 10uM |
| --- | --- |
| Nc1ccccc1SCC(=O)Nc1ccc2c(c1)OCCO2 | 3.12% |
| COC(=O)CSc1nnc2c3c4c(sc3nc(-n3nc(C)cc3C)n12)COC(C)(C)C4 | -14.1% |
| Cc1cccc(NC(=O)CCNC(=O)c2ccccc2Cl)n1 | -0.755% |
| O=C(CCNS(=O)(=O)c1ccc2c(c1)CCC(=O)N2)Nc1ccc2c(c1)OCCO2 | -1.61% |
| C[N+](C)(C)CCCCCCCCCC[N+](C)(C)C.[Br-] | 8.72% |
| N#CCCSCc1ccc2oc(C(=O)O)cc2c1 | 13.5% |
| CC(C)[C@H](NC(=O)c1ccco1)C(=O)OCC(=O)N(C)c1ccccc1 | -29.2% |
| CCOC(=O)C(C)Oc1ccc(C2NC(=O)NC(C)=C2C(C)=O)cc1Br (stereo not shown) | -17% |
| O=C(NC1CCS(=O)(=O)C1)c1ccc(-c2ccc(Br)cc2)o1 (stereo not shown) | -20.9% |
| Cc1cc(NC(=O)CSc2ccc3nnc(-c4cccnc4)n3n2)no1 | -10.2% |
| CC(=O)C(Cc1ccccc1)NC(=O)COC(=O)CCN1C(=O)C2CC=CCC2C1=O (stereo not shown) | 7.85% |
| O=C1C(C=NCC2CCCO2)=C(O)c2ccccc21 (stereo not shown) | -2.05% |
| COc1ccc([N+](=O)[O-])cc1NC(=O)C1C2C=CC(C2)C1C(=O)O (stereo not shown) | 6.42% |
| COC(=O)Nc1nncs1 | 6.94% |
| Cn1c(CSCc2ccc(F)cc2)nnc1SCC(=O)Nc1nccs1 | 1.66% |
| C=CCOc1ccc(C(=O)/C=C2/C(=O)Nc3ccccc32)cc1 | -8.69% |
| O=C(NC1CCCC1)c1ccc2nc[nH]c2c1 | 7.17% |
| COc1ccc(S(=O)(=O)N2CCCCC2)cc1NC(=O)C1CC(=O)N(c2ccc3c(c2)OCCO3)C1 (stereo not shown) | -20.4% |
| C/C(=C\C(=O)c1cccnc1)Nc1ccc(C(=O)O)cc1 | 16.3% |
| CC(=O)N1N=C(c2ccccc2)CC1c1ccccc1[N+](=O)[O-] (stereo not shown) | 2.95% |
| CCCc1nc(SC2CCCC2)c2c(=O)n(C)c(=O)n(C)c2n1 | 1.5% |
| Cn1c(-c2cccc(Br)c2)n[nH]c1=O | 12.5% |
